From PubChem BioAssay (NCATS)
Inconclusive means that the source gave no clear call. Such entries were picked first, then a sample of the others. For some of these results: Potencies of inconclusive entries are left out as doubtful fits. Activity calls are given as the source filed them. Unless noted, the call rests on the fitted dose curve; in most records, active means well fitted curve in the direction sought with a large enough effect; inconclusive means small, poorly fitted or top-dose-only effect, or another doubt; inactive means no such curve, though single readings can be large; an effect the other way counts as inactive or inconclusive.

Tests used:
[1] = qHTS Screen of the MIPE 4.0 Collection Against Ewings Sarcoma (RDES) (AID 1259252); settings: RD-ES Ewing sarcoma viability, CellTiter-Glo, 48 h; series mostly up to 45.8 µM; further: nearly all actives have a fitted effect of over 35% in size; further: potency means the concentration at half of the fitted maximal effect;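 on viability (percent of control): 100% = DMSO-treated cells and 0% = medium-only wells without cells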
Method in brief: (§1)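 CellTiter-Glo luminescence after 48 h compound exposure (titration) gave viability; percent activity used DMSO-treated cells as no inhibition and medium-only wells as full inhibition. Cells grown in RPMI/5% FBS, dosed 4 h post-seeding.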

[2] = qHTS Screen of the MIPE 4.0 Collection Against Ewings Sarcoma (TC71) (AID 1259253); settings: TC71 Ewing sarcoma viability, CellTiter-Glo, 48 h; series mostly up to 45.8 µM; further: nearly all actives have a fitted effect of over 40% in size; further: potency means the concentration at half of the fitted maximal effect
Method in brief: as §1

[3] = Identifying Small Molecule Inhibitors of Pancreatic Cancer Stem Cells (A2780, Spheroid) (AID 1259357); settings: Potency: A2780 spheroid viability; viability (percent of control): at 46.1 µM (top of the series);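 further: compound exposure lasted 48 h before the ATP luminescence read; 100% = DMSO treated cells and 0% = wells without cells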
Method in brief: (§2)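 Cytotoxicity read by CellTiter-Glo luminescence after 48 h compound exposure at 37C; percent activity scaled between DMSO-treated cells and cell-free wells. Spheroid formats used cells pre-formed 14 days in stem cell media on hydrogel.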

[4] = Identifying Small Molecule Inhibitors of Pancreatic Cancer Stem Cells (Panc1, Spheroid) (AID 1259359); settings: Panc1 spheroid cancer stem cell viability; viability, % of control: at 46.1 µM (top of the series);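 further: compound exposure lasted 48 h before reading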; further: potency means the concentration at half of the fitted maximal effect
Method in brief: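 Spheroids grown 14 days in stem cell media on hydrogel-coated nonadherent plates; 2D lines seeded directly. Compounds added after 4 h attachment, 48 h at 37C, 5% CO2; CellTiter-Glo luminescence normalized to DMSO (no inhibition) and no-cell wells (full inhibition).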

[5] = Identifying Small Molecule Inhibitors of Pancreatic Cancer Stem Cells (Panc1, Adherent) (AID 1259362); settings: Potency: viability; viability, % of control: at 46.1 µM (top of the series); further: potency means the concentration at half of the fitted maximal effect;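 on viability, % of control: compound exposure lasted 48 h before the viability read; plate controls were DMSO-treated cells for no effect and cell-free media wells for full effect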
Method in brief: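 Luminescent ATP readout (CellTiter-Glo) quantifies surviving cells after a 48 h drug incubation. Normalization uses DMSO wells as no inhibition and media-only wells as full inhibition; bortezomib served as positive control.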

[6] = qHTS Screen of the MIPE 4.0 Collection Against Ewings Sarcoma (TC32) (AID 1259256); settings: TC32 Ewing sarcoma viability, CellTiter-Glo, 48 h; series mostly up to 45.8 µM; further: nearly all actives have a fitted effect of over 45% in size; further: potency means the concentration at half of the fitted maximal effect;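 on viability (percent of control): 100% = DMSO-treated cells and 0% = medium-only wells without cells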
Method in brief: as §1

[7] = P-glycoprotein substrates identified in KB-8-5-11 adenocarcinoma cell line, qHTS therapeutic library screen (AID 1346987); settings: KB-8-5-11 (P-gp overexpressing) viability, CellTiter-Glo, 72 h; series mostly up to 44.5 µM; further: nearly all actives have a fitted effect of over 65% in size
Method in brief: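 KB-8-5-11: colchicine-selected sub-line of KB-3-1 over-expressing P-gp; assay medium lacked colchicine. 72 h drug exposure at 37 degree C, CellTiter-Glo.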

[8] = P-glycoprotein substrates identified in KB-3-1 adenocarcinoma cell line, qHTS therapeutic library screen (AID 1346986); settings: KB-3-1 parental cells viability, CellTiter-Glo, 72 h; series mostly up to 44.5 µM; further: nearly all actives have a fitted effect of over 60% in size
Method in brief: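 Counter-screen: cherry-picked hits retested in the KB pair and in HEK-293 pcDNA/MDR-19 cells ± tariquidar. Primary screen used 72 h CellTiter-Glo viability in KB-3-1 and KB-8-5-11.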

[9] = Identifying Small Molecule Inhibitors of Pancreatic Cancer Stem Cells (SN12C, Spheroid) (AID 1259360); settings: Potency: SN12C spheroid viability; series mostly up to 46.1 µM; further: potency means the concentration at half of the fitted maximal effect;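 on viability (% of control): 100% = DMSO-treated cells and 0% = wells without cells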
Method in brief: as §2

[10] = Identifying Small Molecule Inhibitors of Pancreatic Cancer Stem Cells (A278, Adherent) (AID 1259361); settings: viability (% of control): at 46.1 µM (top of the series); further: nearly all actives have a fitted effect of over 35% in size;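 on viability (% of control): 100% = DMSO-treated cells and 0% = cell-free media-only wells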
Method in brief: as §2

[11] = target: Atrial natriuretic peptide receptor 1 (Homo sapiens) (UniProt P16066); experiment: Natriuretic polypeptide receptor (hNpr1) antagonism - Pilot screen (AID 1347049; calls by dose curve;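 further: agonist-evoked cGMP luminescence read 20 min after hNppA addition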; further: potency means the concentration at half of the fitted maximal effect); settings: hNpr1 cells, antagonist mode cGMP read-out; series mostly up to 57.5 µM
Method in brief: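 Readout is cGMP-driven firefly luciferase luminescence in HEK293 cells carrying hNpr1 and a PDE5-domain GloSensor, read before and 20 min after 0.1 nM hNppA stimulation. Cells had 2% substrate reagent for 2 h and test compound for 30 min.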

[12] = qHTS Screen of the MIPE 4.0 Collection Against Ewings Sarcoma (EW8) (AID 1259255); settings: EW8 Ewing sarcoma viability, CellTiter-Glo, 48 h; series mostly up to 45.8 µM; further: nearly all actives have a fitted effect of over 35% in size; further: potency means the concentration at half of the fitted maximal effect;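 on viability: 100% = DMSO-treated cells and 0% = medium-only wells without cells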
Method in brief: as §1

[13] = qHTS assay to identify small molecule inhibitors of chordoma cells - UCH-1 (AID 1259355); settings: UCH-1 chordoma viability, CellTiter-Glo, 48 h, combination, with auranofin plus four topoisomerase inhibitors; series mostly up to 46.1 µM; further: potency means the concentration at half of the fitted maximal effect; nearly all actives have a fitted effect of over 55% in size
Method in brief: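 Seed 800 cells per well; incubate overnight at 37 C, 5% CO2. Add test compounds (15 concentrations), then the auranofin–topoisomerase-agent combination. Incubate 48hr, add CellTiter-Glo, wait 30min, read luminescence.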
Tags describe the fitted curve by direction and shape.

UniProt P16066, sequence (P16066 whole entry, looked up): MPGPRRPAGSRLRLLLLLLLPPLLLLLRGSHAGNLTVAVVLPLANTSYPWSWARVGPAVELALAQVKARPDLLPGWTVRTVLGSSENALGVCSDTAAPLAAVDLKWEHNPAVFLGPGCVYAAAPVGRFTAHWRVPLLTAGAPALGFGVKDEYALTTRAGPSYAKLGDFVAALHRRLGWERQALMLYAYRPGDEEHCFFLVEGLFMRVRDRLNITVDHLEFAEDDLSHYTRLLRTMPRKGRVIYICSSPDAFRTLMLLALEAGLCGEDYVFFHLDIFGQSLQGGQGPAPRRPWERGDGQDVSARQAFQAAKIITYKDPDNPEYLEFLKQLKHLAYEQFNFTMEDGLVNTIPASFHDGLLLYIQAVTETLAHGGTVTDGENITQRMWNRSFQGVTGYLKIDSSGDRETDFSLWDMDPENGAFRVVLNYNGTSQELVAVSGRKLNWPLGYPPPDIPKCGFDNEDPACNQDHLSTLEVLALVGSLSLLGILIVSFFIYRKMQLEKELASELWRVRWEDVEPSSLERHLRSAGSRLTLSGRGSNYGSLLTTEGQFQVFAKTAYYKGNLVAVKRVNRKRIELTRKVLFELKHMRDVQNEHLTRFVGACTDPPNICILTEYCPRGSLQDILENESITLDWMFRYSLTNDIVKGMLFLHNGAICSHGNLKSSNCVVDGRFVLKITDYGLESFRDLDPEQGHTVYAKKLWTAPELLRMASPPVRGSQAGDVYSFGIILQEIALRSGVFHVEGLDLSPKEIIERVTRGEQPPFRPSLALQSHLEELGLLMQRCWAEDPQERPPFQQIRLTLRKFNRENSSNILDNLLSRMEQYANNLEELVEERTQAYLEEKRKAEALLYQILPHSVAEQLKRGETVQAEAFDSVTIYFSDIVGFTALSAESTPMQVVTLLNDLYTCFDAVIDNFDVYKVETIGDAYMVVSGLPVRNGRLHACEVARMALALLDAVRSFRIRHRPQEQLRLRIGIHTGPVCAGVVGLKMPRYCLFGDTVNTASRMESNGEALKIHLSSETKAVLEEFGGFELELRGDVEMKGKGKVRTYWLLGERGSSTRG

SMILES: Nc1nc(-c2nn(Cc3ccccc3F)c3ncccc23)nc(N)c1N1CCOCC1
- Potency [1]: inactive
- Potency [2]: inactive
- viability (percent of control) [3]: inconclusive: 96.2%
- viability, % of control [4]: inconclusive: 49.6%
- viability, % of control [5]: inconclusive: 97.9%

SMILES: NCCCCCC(=O)O
- Potency [1]: inconclusive [inhibitor, partial curve, poor fit]
- Potency [2]: inconclusive [inhibitor, single point]
- Potency [6]: inconclusive [inhibitor, partial curve, poor fit]
- Potency [7]: inactive

SMILES: O=C(Nc1c(Cl)cncc1Cl)c1ccc(OC(F)F)c(OCC2CC2)c1
- Potency [1]: inconclusive [inhibitor, single point]
- Potency [2]: inconclusive [inhibitor, single point]
- Potency [6]: inconclusive [inhibitor]

SMILES: C=C(C)[C@@H]1CC[C@]2(C)CC[C@]3(C)[C@H](CC[C@@H]4[C@@]5(C)CC[C@H](O)C(C)(C)[C@H]5CC[C@]43C)[C@@H]12
- Potency [1]: inactive
- Potency [2]: inactive
- Potency [6]: inactive
- Potency [7]: inactive

SMILES: O=C(NCCO[N+](=O)[O-])c1cccnc1
- Potency [1]: inconclusive [inhibitor, partial curve, poor fit]
- Potency [2]: inconclusive [inhibitor, single point]
- Potency [6]: inconclusive [inhibitor, single point]
- Potency [8]: inactive

SMILES: CCOC(=O)C1=C(O)C(=O)N(Cc2ccccc2)C1
- Potency [1]: inactive
- Potency [2]: inactive
- Potency [6]: inconclusive [inhibitor, partial curve, poor fit]
- Potency [3]: inactive
- viability, % of control [5]: inconclusive: 106%

SMILES: Clc1ccc(-c2nc3sccn3c2C=NOCc2ccc(Cl)c(Cl)c2)cc1
- Potency [1]: inconclusive [inhibitor, partial curve, poor fit]
- Potency [2]: inconclusive [inhibitor, partial curve, poor fit]
- Potency [6]: inconclusive [inhibitor, full curve, poor fit]
- viability (percent of control) [3]: inconclusive: 119%
- Potency [4]: inconclusive [cytotoxic, full curve, poor fit]
- Potency [9]: inactive
- IC50 (viability decrease) [10]: inactive
- Potency [5]: inconclusive [cytotoxic, partial curve, poor fit]
- Potency [7]: inactive

SMILES: CN(C)c1ccc(C2Nc3ccc4ccccc4c3C3=C2C(=O)CC(C)(C)C3)cc1Br (centres undefined)
- Potency [9]: inactive

SMILES: CCC(C)n1ncn(-c2ccc(N3CCN(c4ccc(OC[C@H]5CO[C@](Cn6cncn6)(c6ccc(Cl)cc6Cl)O5)cc4)CC3)cc2)c1=O (some centres undefined)
- Potency [9]: inconclusive [cytotoxic, partial curve, poor fit]

SMILES: CN[C@@H](C)C(=O)N[C@H]1CCCC[C@H]2CC[C@@H](C(=O)N[C@@H](c3ccccc3)c3cn(CCCCc4ccc(CCCCn5cc([C@@H](NC(=O)[C@@H]6CC[C@@H]7CCCC[C@H](NC(=O)[C@H](C)NC)C(=O)N76)c6ccccc6)nn5)cc4)nn3)N2C1=O
- IC50 (viability decrease) [10]: inconclusive [cytotoxic, partial curve]

SMILES: CNC(=O)c1cc(Oc2ccc(NC(=O)Nc3ccc(Cl)c(C(F)(F)F)c3)c(F)c2)ccn1
- IC50 (viability decrease) [10]: active: 16.6 µM

SMILES: Nc1nc2c(ncn2COCCO)c(=O)[nH]1
- Potency [11]: inconclusive [inhibitor, single point]

SMILES: CNCCCC12CCC(c3ccccc31)c1ccccc12
- Potency [11]: inactive

SMILES: CNC(=O)c1ccc(-c2cnc3ncc(Cc4ccc5ncccc5c4)n3n2)cc1F
- Potency [1]: inactive
- Potency [12]: inactive

SMILES: CCCC1OC2C[C@@H]3[C@H]4CCC5=CC(=O)C=C[C@]5(C)[C@H]4C(O)C[C@]3(C)[C@]2(C(=O)CO)O1 (some centres undefined)
- Potency [1]: inactive
- Potency [12]: active: 18.7 µM
- Potency [6]: inconclusive [inhibitor, single point]

SMILES: O=C(O)c1cc(=O)[nH]c(=O)[nH]1
- Potency [1]: inactive
- Potency [12]: inactive
- Potency [6]: inactive

SMILES: CC[C@H](C=C[C@@H](C)[C@H]1CC[C@H]2[C@@H]3CC=C4C[C@@H](O)CC[C@]4(C)[C@@H]3CC[C@]12C)C(C)C
- Potency [1]: inactive
- Potency [12]: inactive
- Potency [6]: inconclusive [inhibitor, full curve, poor fit]

SMILES: CCCc1cc(=O)[nH]c(=S)[nH]1
- Potency [1]: inactive
- Potency [12]: inconclusive [inhibitor, single point]
- Potency [6]: inconclusive [inhibitor, single point]

SMILES: COc1cc(O)c2c(c1)C(=O)c1cc(C)cc(O)c1C2=O
- Potency [1]: inconclusive [inhibitor, full curve, poor fit]
- Potency [12]: inconclusive [inhibitor, full curve, poor fit]

SMILES: CC(C)=CC[C@@H](O)C1=CC(=O)c2c(O)ccc(O)c2C1=O
- Potency [1]: inconclusive [inhibitor, full curve, poor fit]
- Potency [12]: inconclusive [inhibitor, full curve, poor fit]
- Potency [6]: inconclusive [inhibitor, full curve, poor fit]

SMILES: CC1(C)O[C@H]2C[C@@H]3[C@H]4CCC5=CC(=O)C=C[C@]5(C)[C@@]4(F)[C@@H](O)C[C@]3(C)[C@]2(C(=O)CO)O1
- Potency [1]: inconclusive [inhibitor, partial curve, poor fit]
- Potency [12]: inconclusive [inhibitor, single point]
- Potency [6]: inconclusive [inhibitor, single point]
- Potency [13]: inconclusive [cytotoxic, full curve, poor fit]
- Potency [7]: inactive
